From PubChem BioAssay AID2546 (National Center for Advancing Translational Sciences (NCATS), 2010)
“And” between values parts separate entries of the source, which are not always exact repeats. Identical values can stand only once. The campaign covered roughly 310,000 compounds. About 11,000 (3.5%) were called active. Inconclusive results, whose numbers are uncertain, are shown with a selection of clear calls. Calls come from the whole dose curve; as a rule, active = well fitted inhibition curve with a large enough effect; inconclusive = small, poorly fitted or top-dose-only effect, or effect the other way; inactive = flat fitted curve, though single readings scatter. Potencies of inconclusive entries are doubtful fits and often do not repeat.

Experiment: VP16 counterscreen qHTS for inhibitors of ROR gamma transcriptional activity;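 note: Gal4-VP16 expression switched on by copper sulfate through the metallothionein promoter; nearly all actives have a fitted effect of over 50% in size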
Conditions: Drosophila S2 Gal4-VP16 UAS-luciferase, luminescence, 20 h; activity, negative = inhibition: at 53.6 µM (top of the series)
% is set by controls: 0 for no effect and ±100 for the full control effect; potency is the fitted concentration of half-maximal effect; tags give direction and shape of the fitted curve.

| SMILES | Potency | activity, negative = inhibition |
| --- | --- | --- |
| CCCOc1ccccc1C1CC(=O)Nc2cc3c(cc21)OCCO3 (stereo not given) | inconclusive: 25.1 µM [inhibitor, single point] | – |
| Cc1ccc(C(=O)Nc2cccc(C(=O)O)c2)cc1 | active: 17.8 µM | – |
| O=C(CCn1cnc(-c2ccccc2)c1-c1ccccc1)N/N=C/c1ccccc1O | active: 2.82 µM | – |
| COc1ccc(-c2cn(-c3ccc(OC)cc3)c(=S)[nH]2)cc1 | active: 1.41 µM | – |
| O=C(NC1CCCC1)c1cc(Cl)ccc1[N+](=O)[O-] | inactive | – |
| CSc1ccc(CN(C)Cc2cc(=O)oc3c(C)c(C)ccc23)cc1 | inconclusive: 25.1 µM [inhibitor, single point] | – |
| O=S(=O)(c1ccc(Cl)c(Cl)c1)c1snnc1-c1ccccc1 | inconclusive: 22.4 µM [inhibitor, single point] | – |
| COc1cccc(NC(=O)Cn2c(=O)n(-c3ccccc3)c(=O)c3sccc32)c1 | inactive | – |
| Nc1nc(-c2ccccc2)c(-c2ccccc2)n1N | active: 1.41 µM | – |
| COc1ccc(OC)c(-c2csc(NC(=O)Cc3ccccc3F)n2)c1 | inactive | – |
| CCOc1ccc(CN2CCN(CC(O)Cn3c4ccccc4c4ccccc43)CC2)cc1 (stereo not given) | inconclusive: 25.1 µM [inhibitor, single point] | – |
| CCCCNC(=S)NNC(=O)c1cc(C2CC2)nc2ccccc12 | inconclusive: 10 µM [inhibitor, partial curve] | – |
| CCOc1ccc(/C=N/n2cc(-c3ccccc3)[nH]c2=S)cc1 | inconclusive: 35.5 µM [inhibitor, single point] | – |
| CCn1c(C(=O)N2CCCC(C(=O)NCCc3ccc(C)cc3)C2)cc2sccc21 (stereo not given) | inactive | – |
| Cc1ccc(CN2CCN(/N=C/c3ccc(O)c(O)c3)CC2)cc1 | inconclusive: 14.1 µM [inhibitor, partial curve] | – |
| O=C(NNC(=S)NC(=O)c1cccc([N+](=O)[O-])c1)c1ccc(O)cc1 | active: 12.6 µM | – |
| Cc1nc2nc(SCC(=O)c3cccc([N+](=O)[O-])c3)[nH]c2cc1Br | inactive | – |
| NC(=S)NNc1ccc(Cl)c(Cl)c1 | active: 10 µM | – |
| O=C(NCC1COc2ccccc2O1)c1c[nH]c2ccc(S(=O)(=O)N3CCOCC3)cc2c1=O (stereo not given) | inactive | – |
| CCOc1ccccc1N1CCN(C(=O)c2cc(C)oc2C)CC1 | inactive | – |
| C=CCn1c(=S)[nH]c2cc(C(=O)Nc3ccc(OC)c(OC)c3)ccc2c1=O | inactive | – |
| O=C(CSc1nc2ccc(NC(=O)CSc3nnnn3-c3ccccc3)cc2s1)Nc1ccccc1 | inconclusive: 5.62 µM [activator, single point] | – |
| CCN(CC)CCOc1ccc(C(O)(Cc2ccc(Cl)cc2)c2ccc(C)cc2)cc1 (stereo not given) | inconclusive: 25.1 µM [inhibitor, single point] and inconclusive: 20 µM [inhibitor, single point] | – |
| O=C1c2ccccc2C(=O)C12OC2c1ccc(Cl)cc1 (stereo not given) | inconclusive: 0.501 µM [inhibitor, single point] | – |
| Cc1cc2c(cc1C)C(c1cc(Br)ccc1F)CC(=O)N2 (stereo not given) | inconclusive: 35.5 µM [inhibitor, single point] | – |

| SMILES | Potency | activity, negative = inhibition |
| --- | --- | --- |
| Cc1nn(-c2ccccc2)cc1/C=N/NC(=O)c1cccs1 | inconclusive: 17.8 µM [inhibitor, single point] | – |
| O=C(Nc1ccccc1Cl)NC1(C(=O)NCc2cccnc2)CCCCC1 | inactive | – |
| Cc1cc(C)c2nc(Nc3nc(-c4ccccc4)cc(=O)[nH]3)nc(C)c2c1 | active: 2.24 µM | – |
| COc1ccc(Nc2nc(Cl)nc(Nc3ccc(OC)cc3)n2)cc1 | inconclusive: 35.5 µM [inhibitor, single point] | – |
| CC(C)S(=O)(=O)c1csc(NC(=O)Nc2ccc(Cl)cc2)c1Cl | inconclusive: 25.1 µM [inhibitor, single point] | – |
| Cc1ccc(CN2CCN(CC(=O)NC(C)CCc3ccccc3)C2=O)cc1 (stereo not given) | inconclusive: 35.5 µM [inhibitor, single point] | – |
| Cc1ccc(-n2c(=S)[nH]c3sc4c(c3c2=O)CCC4)cc1 | active: 3.55 µM | – |
| O=C(NCC1COCCO1)c1cc(COc2c(F)cccc2F)on1 (stereo not given) | inactive | – |
| Cc1cc(Nc2ccc(N(C)C)cc2)n2ncnc2n1 | inconclusive: 31.6 µM [activator, single point] | – |
| COc1ccc(-c2coc3c(O)c(OC)ccc3c2=O)cc1 | inconclusive: 35.5 µM [inhibitor, single point] | – |
| CC(C)CCn1c(-c2nonc2N)nc2ccccc21 | inconclusive: 17.8 µM [inhibitor, single point] | – |
| COc1ccc(/C=C/C(=O)Oc2cccc(/C=N/NC(=O)COc3c(C)cccc3C)c2)cc1 | inconclusive: 35.5 µM [inhibitor, single point] | – |
| O=C1CS/C(=N/N=C/c2ccc(OS(=O)(=O)c3ccccc3)cc2)N1 | inconclusive: 7.94 µM [activator, partial curve] | – |
| Cc1ccc(Sc2ccc(/C=N/O)cc2[N+](=O)[O-])cc1 | inactive | – |
| CN1CCc2c(OCC(=O)N3CCC(Cc4ccccc4)CC3)cccc2C1=O | inactive | – |
| COc1ccccc1Nc1nc2ccccc2n1C | inconclusive: 2.24 µM [activator, partial curve] | – |
| COc1cc(/C=N/N2CCN(C3c4ccccc4-c4ccccc43)CC2)ccc1O | inconclusive: 22.4 µM [inhibitor, single point] | – |
| O=C(CCCc1nc2ccccc2s1)N1CCN(S(=O)(=O)c2cccs2)CC1 | inactive | – |
| COc1ccc(OCC(O)CNc2ccc(Br)cc2)cc1 (stereo not given) | inconclusive: 35.5 µM [inhibitor, single point] | – |
| O=C(Nc1cccnc1)Nc1cc(Cl)cc(Cl)c1 | inactive | – |
| COc1ccc(C(c2c(C)n(C)n(-c3ccccc3)c2=O)c2c(C)n(C)n(-c3ccccc3)c2=O)c(OC)c1OC | inactive | – |
| CCOC(=O)c1cnc(-n2nc(C)cc2C)nc1NNc1cc(C)nc(-c2ccccc2)n1 | inconclusive: 3.16 µM [inhibitor, full curve, poor fit] | – |
| Cc1cnc(NC(=O)CCCSc2nc3ccccc3s2)s1 | inconclusive: 22.4 µM [inhibitor, single point] | – |
| NC(=O)COC(=O)c1ccc(Cl)c(S(=O)(=O)N2CCN(c3ccc(F)cc3)CC2)c1 | inconclusive: 35.5 µM [inhibitor, single point] | – |
| CC1CCN(C(=O)c2[nH]cnc2C(=O)N[C@@H](C)C(=O)OCc2ccccc2)CC1 | inactive | – |

| SMILES | Potency | activity, negative = inhibition |
| --- | --- | --- |
| CCOCCCn1c(NN)nc2ccccc2c1=O | inconclusive: 17.8 µM [inhibitor, single point] | – |
| Cc1cccc(NC(=S)NCc2ccc(F)cc2)c1C | active: 5.01 µM | – |
| N=c1n(CCN2CCCC2)c2ccccc2n1CC(O)c1ccc(Cl)c(Cl)c1 (stereo not given) | inconclusive: 35.5 µM [inhibitor, single point] | – |
| COc1ccc(N2CCN(C(=O)c3ccc(Br)cc3)CC2)c([N+](=O)[O-])c1 | inconclusive: 35.5 µM [inhibitor, single point] | – |
| Cn1cc(C(=O)c2ccccc2)cc1-c1nc2ccccc2n1C | inactive | – |
| CCOc1cc(C)c(S(=O)(=O)NC2CC(C)(C)NC(C)(C)C2)cc1C | – | inactive: 3.52% [at 10 µM] |
| O=C(NC(=S)Nc1ccccc1N1CCOCC1)c1cccs1 | active: 14.1 µM | – |
| Cc1ccc(NC(=S)/N=C(\N)Nc2nc(C)c3cc(C)c(C)cc3n2)cc1C | active: 5.01 µM | – |
| CNC(=S)N1CCc2cc(OC)c(OC)cc2C1COc1ccc(OC)cc1 (stereo not given) | inactive | – |
| COCC(=O)O | inactive | – |
| CC1(C)Cc2c(c(N3CCOCC3)nc3sc4c(NN)ncnc4c23)CS1 | active: 7.08 µM | – |
| Cc1ccc(CN=C2NC(=O)C(CC(=O)NCCc3ccccc3)S2)cc1 (stereo not given) | inactive | – |
| COc1ccccc1CNc1ccc(C(=O)O)cc1 | inconclusive: 8.91 µM [inhibitor, partial curve] | – |
| Cc1c(Cl)cccc1NC(=S)N(Cc1ccco1)C(C)c1ccccn1 (stereo not given) | inconclusive: 35.5 µM [inhibitor, single point] | – |
| CCCn1cnc2cc(NCc3cccc(OC)c3O)ccc21 | inconclusive: 35.5 µM [inhibitor, single point] | – |
| COc1cc(/C=C/c2nnc3c4ccccc4ncn23)cc(OC)c1OC | inconclusive: 35.5 µM [inhibitor, single point] | – |
| Cn1c(Cn2nnc3ccccc32)nnc1SCC(=O)Nc1nccs1 | inconclusive: 5.62 µM [activator, single point] | – |
| COc1ccc(CC(=O)Nc2nc(-c3ccc(F)c(F)c3)cs2)cc1OC | active: 15.8 µM | – |
| CC(C)c1ccc(C(O)P(=O)(OC2CCCCC2)OC2CCCCC2)cc1 (stereo not given) | inconclusive: 35.5 µM [inhibitor, single point] | – |
| CCCCC(=O)NC(=S)Nc1cccc(NC(=O)c2ccccc2)c1 | active: 7.94 µM | – |
| O=C(CNC(=O)c1nc[nH]c1C(=O)NCc1ccccc1)OCc1ccccc1 | inconclusive: 31.6 µM [inhibitor, single point] | – |
| Cc1onc(-c2ccccc2)c1C(=O)N/N=C/c1ccc(Br)cc1 | inconclusive: 35.5 µM [inhibitor, single point] | – |
| COc1cccc(S(=O)(=O)NCc2ccc(C(=O)Nc3ccc(Cl)cc3)cc2)c1 | inconclusive: 35.5 µM [inhibitor, single point] | – |
| CNC(=S)N(Cc1ccc(OC)cc1)Cc1cc2cc(C)ccc2[nH]c1=O | inactive | – |
| Cc1c([N+](=O)[O-])c([N+](=O)[O-])nn1CC(=O)NCCc1ccccc1 | inconclusive: 15.8 µM [inhibitor, partial curve] | – |
